{"source": "PubChem BioAssay AID504332", "about": "(National Center for Advancing Translational Sciences (NCATS), 2011)", "note": "About 31,000 (8.9%) of roughly 350,000 compounds were called active. The inconclusive results got no clear call from the source; some entries with a clear call stand among them for comparison. Calls follow the shape of the dose curve; as a rule, active = well fitted inhibition curve with a large enough effect; inconclusive = small, poorly fitted or top-dose-only effect; inactive = no such curve, though single readings can be large or run the other way. A potency beside an inconclusive call is a rough fit, not a confirmed value. % is scaled to controls: 0 for no effect and ±100 for the full control effect; potency is read from the fitted curve at half-maximal effect; tags tell the direction and shape of the fitted curve.", "data": [{"target": "Histone-lysine N-methyltransferase EHMT2 (Homo sapiens) (UniProt Q96KQ7)", "sequence (Q96KQ7 whole entry, looked up)": "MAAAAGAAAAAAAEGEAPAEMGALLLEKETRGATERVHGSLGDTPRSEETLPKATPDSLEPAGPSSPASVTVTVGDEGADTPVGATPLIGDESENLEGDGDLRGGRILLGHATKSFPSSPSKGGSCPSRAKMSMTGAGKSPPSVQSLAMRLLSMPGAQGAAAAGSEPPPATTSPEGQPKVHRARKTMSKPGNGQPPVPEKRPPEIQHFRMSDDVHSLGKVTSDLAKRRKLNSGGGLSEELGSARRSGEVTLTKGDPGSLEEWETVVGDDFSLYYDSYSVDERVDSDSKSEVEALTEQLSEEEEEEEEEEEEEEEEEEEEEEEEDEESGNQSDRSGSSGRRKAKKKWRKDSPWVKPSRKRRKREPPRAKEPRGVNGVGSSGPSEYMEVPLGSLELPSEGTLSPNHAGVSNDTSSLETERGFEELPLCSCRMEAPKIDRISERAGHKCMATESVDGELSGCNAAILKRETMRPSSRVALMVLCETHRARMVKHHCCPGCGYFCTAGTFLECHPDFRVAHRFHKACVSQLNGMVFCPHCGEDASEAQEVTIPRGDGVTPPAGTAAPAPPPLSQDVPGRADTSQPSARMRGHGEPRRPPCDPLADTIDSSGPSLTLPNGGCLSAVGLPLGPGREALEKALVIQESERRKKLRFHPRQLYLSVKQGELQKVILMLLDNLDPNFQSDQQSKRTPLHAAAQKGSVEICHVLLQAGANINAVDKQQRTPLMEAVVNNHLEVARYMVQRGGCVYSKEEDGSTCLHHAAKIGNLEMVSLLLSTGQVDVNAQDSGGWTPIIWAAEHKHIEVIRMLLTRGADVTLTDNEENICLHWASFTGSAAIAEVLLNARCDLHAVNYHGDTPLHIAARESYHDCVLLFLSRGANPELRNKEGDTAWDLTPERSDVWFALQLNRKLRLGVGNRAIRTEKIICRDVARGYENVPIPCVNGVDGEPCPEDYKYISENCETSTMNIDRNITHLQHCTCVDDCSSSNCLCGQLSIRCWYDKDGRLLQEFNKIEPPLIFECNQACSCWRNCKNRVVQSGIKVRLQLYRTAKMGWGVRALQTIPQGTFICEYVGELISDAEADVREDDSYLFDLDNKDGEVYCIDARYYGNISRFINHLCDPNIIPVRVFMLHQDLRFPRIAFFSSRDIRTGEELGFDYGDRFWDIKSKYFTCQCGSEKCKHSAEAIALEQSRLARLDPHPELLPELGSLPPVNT", "experiment": "qHTS Assay for Inhibitors of Histone Lysine Methyltransferase G9a; also: nearly all actives have a fitted effect of over 75% in size", "details": "G9a H3K9 monomethylation, AlphaScreen, 2 h; activity, negative = inhibition: at 59 µM (top of the series) unless noted", "procedure,_shortened": "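Compounds were preincubated with 20 nM G9a for 15 min, after which biotinylated H3K9 peptide (500 nM) and SAM (20 uM) started a 2 h room-temperature reaction. Monomethylated product was quantified by antibody-based AlphaScreen chemiluminescence.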", "values": [{"compound": "Cc1ccc(NC(=O)CSc2nccn2Cc2ccc3c(c2)OCO3)c(C)c1", "Potency": "inconclusive: 10 µM [inhibitor, partial curve, poor fit]"}, {"compound": "Cc1ccc(C(=O)/C=C/c2cn(CC(O)CN3CCCCCC3)c3ccccc23)cc1", "note": "(centres undefined)", "Potency": "inconclusive: 28.2 µM [inhibitor, partial curve, poor fit]"}, {"compound": "O=[N+]([O-])c1ccccc1N/N=C/c1cccc(O)c1O", "activity, negative = inhibition": "inconclusive: -84.3% [inhibitor]"}, {"compound": "Cc1ccc(S(=O)(=O)NCC(C)NS(=O)(=O)c2ccc(C)cc2)cc1", "note": "(centres undefined)", "Potency": "inconclusive: 5.01 µM [inhibitor, partial curve, poor fit]"}, {"compound": "Cc1ccc(Cl)cc1NC(=S)N(CCCN1CCOCC1)Cc1ccco1", "Potency": "inconclusive: 50.1 µM [inhibitor, partial curve]"}, {"compound": "CC(C)=NNc1nc2c(c(=O)[nH]c(=O)n2C)n1CCc1ccccc1", "Potency": "active: 44.7 µM"}, {"compound": "Cc1cccc(-c2nnc(NC(=O)c3ccco3)s2)c1", "activity, negative = inhibition": "inactive: 2.78% [at 12.7 µM]"}, {"compound": "Cc1cc(C)c(S(=O)(=O)c2ccccc2C(=O)O)c(C)c1", "Potency": "inconclusive: 1.41 µM [inhibitor, full curve, poor fit]"}, {"compound": "Cc1onc(-c2ccccc2)c1C(=O)N1CCOCC1", "Potency": "inconclusive: 15.8 µM [inhibitor, full curve, poor fit]"}, {"compound": "Cc1ccccc1/C=N/n1c(-c2cc(-c3ccccc3)n[nH]2)n[nH]c1=S", "Potency": "inconclusive: 1 µM [inhibitor, partial curve, poor fit]"}, {"compound": "N#Cc1cccc(NC(=O)COC(=O)CCc2nc3ccccc3c(=O)[nH]2)c1", "Potency": "active: 12.6 µM"}, {"compound": "COc1ccc(-c2nc3sc(CCNS(=O)(=O)c4c(C)cc(C)cc4C)c(C)n3n2)cc1", "Potency": "inactive"}, {"compound": "COc1ccc(-n2c(C)c(C)c3c(NCCN(C)C)ncnc32)cc1", "Potency": "inconclusive: 79.4 µM [inhibitor, single point]"}, {"compound": "O=C(/C=C/c1cn(-c2ccccc2)nc1-c1ccccc1)Nc1ccc(C(=O)O)cc1", "Potency": "inconclusive: 25.1 µM [inhibitor, partial curve, poor fit]"}, {"compound": "Cc1cc(C)c(-c2csc(Cc3nc(-c4cc5ccccc5oc4=O)cs3)n2)cc1C", "Potency": "inconclusive: 35.5 µM [inhibitor, single point]"}, {"compound": "COc1cccc(C2=NN(C(=O)c3ccccc3)C(O)(C(F)(F)F)C2)c1", "note": "(centres undefined)", "activity, negative = inhibition": "inactive: -39.4% [at 12.7 µM]"}, {"compound": "CN(C)CCSc1nnc(-c2ccccc2)o1", "Potency": "active: 39.8 µM"}, {"compound": "COc1ccccc1OCC(=O)N/N=C1/SCC(=O)N1Cc1ccccc1", "Potency": "inconclusive: 8.91 µM [inhibitor, single point]"}, {"compound": "Cc1ccc(NC(=O)CSc2cccc3cccnc23)c(C)c1", "Potency": "inactive"}, {"compound": "Cc1cc(C(=O)c2ccccc2)c(NC(=O)CCl)s1", "Potency": "inconclusive: 2.82 µM [inhibitor, partial curve, poor fit]"}, {"compound": "Cc1ccccc1N(CC(=O)N/N=C/c1cc(C)n(-c2ccccc2C)c1C)S(C)(=O)=O", "Potency": "active: 10 µM"}, {"compound": "CC(=O)N1c2ccc(S(=O)(=O)N3CCCC(C(=O)N4CCCC(C)C4)C3)cc2CC1C", "note": "(centres undefined)", "activity, negative = inhibition": "inactive: 15% [at 0.0925 µM]"}, {"compound": "CCOCCCNC(=O)c1cn(C)c2ccc(S(=O)(=O)N(C)C3CCCCC3)cc2c1=O", "Potency": "inconclusive: 89.1 µM [inhibitor, single point]"}, {"compound": "Cc1c(C(=O)OCC2CCCO2)[nH]c2c1C(=O)CC(c1ccc(N(C)C)cc1)C2", "note": "(centres undefined)", "Potency": "active: 14.1 µM"}, {"compound": "CCC(C(=O)Nc1cc(C)ccc1OC)n1nnc(C(=O)OC)c1C(=O)OC", "note": "(centres undefined)", "Potency": "inactive"}, {"compound": "CCCOC(=O)c1c(NC(=O)C2CCCO2)sc(C(=O)OC)c1C", "note": "(centres undefined)", "Potency": "active: 3.55 µM"}, {"compound": "OCC[C@@H]1C[C@@H](O)[C@H](O)[C@]2(CCCc3ccccc3O2)O1", "Potency": "inactive"}, {"compound": "CCOc1ccc(C(=O)Nc2ccc3c(c2)N(C(C)=O)CCC3)cc1OCC", "Potency": "inactive"}, {"compound": "COc1cccc(NC(=O)CN(C)CC(=O)Nc2ccc3c(c2)CCC3)c1", "Potency": "inactive"}, {"compound": "O=C(NCc1ccc2c(c1)OCO2)c1ccc(NS(=O)(=O)c2ccc3c(c2)OCCO3)cc1", "Potency": "inconclusive: 20 µM [inhibitor, single point]"}, {"compound": "CCc1ccc(S(=O)(=O)N(C(C)=O)c2ccc3oc4c(c3c2)CCCC4)cc1", "Potency": "inconclusive: 0.562 µM [inhibitor, partial curve, poor fit]"}, {"compound": "CC(=O)Nc1ccc(Nc2nc(-c3cc4ccccc4oc3=O)cs2)cc1", "Potency": "inconclusive: 89.1 µM [inhibitor, single point]"}, {"compound": "Cc1cc(C)n2nc(CNS(=O)(=O)c3ccc([N+](=O)[O-])cc3)nc2n1", "Potency": "inactive"}, {"compound": "Cc1nn(CCC(=O)O)c2nc(-c3cccnc3)cc(C(F)(F)F)c12", "Potency": "inconclusive: 89.1 µM [inhibitor, single point]"}, {"compound": "CC(C)c1ccc(/C=C/C(=O)NCCC2=CCCCC2)cc1", "Potency": "inconclusive: 22.4 µM [inhibitor, single point]"}, {"compound": "CC(=O)Nc1cccc(NC(=O)Cc2csc(COc3cccc(C)c3)n2)c1", "Potency": "inactive"}, {"compound": "Cc1ccc(-c2nn(-c3ccccc3)cc2C(=O)N2CCN(C3CCS(=O)(=O)C3)CC2)cc1", "note": "(centres undefined)", "Potency": "active: 7.08 µM"}, {"compound": "O=C(CCS(=O)(=O)c1ccc(Br)s1)NCc1ccc2c(c1)OCO2", "Potency": "inconclusive: 100 µM [inhibitor, single point]"}, {"compound": "CN(C)c1ccc(CN(Cc2ccco2)C(=O)c2ccc(F)cc2)cc1", "Potency": "active: 12.6 µM"}, {"compound": "COc1ccccc1CNC(=O)CCC(=O)N1Cc2ccccc2Oc2ncccc21", "Potency": "inactive"}, {"compound": "C[N+]1(CC#CC(O)(c2ccccc2)c2ccccc2)CCCC1", "Potency": "active: 8.91 µM"}, {"compound": "CN1CCN(C(=S)c2cn(Cc3ccc(F)cc3)c3ccccc23)CC1", "Potency": "active: 44.7 µM"}, {"compound": "CCC(=O)N1N=C(c2ccc(C)o2)CC1c1ccc(OC)cc1", "note": "(centres undefined)", "Potency": "inconclusive: 50.1 µM [inhibitor, partial curve, poor fit]"}, {"compound": "CN(C)CCOC(=O)[C@@H](c1ccccc1)C1(O)CCCC1", "activity, negative = inhibition": "inactive: -10.8% [at 12.7 µM]"}, {"compound": "O=C1C2CC=CCC2C(=O)N1c1n[nH]c(Cc2ccccc2)n1", "note": "(centres undefined)", "Potency": "inconclusive: 1.41 µM [inhibitor, single point]"}, {"compound": "O=C(O)CCC(NC(=O)C(Cc1ccc2c(c1)OCO2)NC(=O)c1ccccc1)C(=O)O", "note": "(centres undefined)", "Potency": "inconclusive: 89.1 µM [inhibitor, single point]"}, {"compound": "Cc1ccccc1NC(=O)c1ccccc1NC(=O)Cc1cccc2ccccc12", "Potency": "inconclusive: 3.55 µM [inhibitor, full curve, poor fit]"}, {"compound": "O=C(NCCCN1CCCC1=O)c1ccc(Cl)c(NS(=O)(=O)c2ccc(F)cc2)c1", "Potency": "inconclusive: 39.8 µM [inhibitor, partial curve]"}, {"compound": "Cc1ccc(-n2nc3c(N4CCC(C(=O)N(C)Cc5ccccc5)CC4)nnc(C)c3c2C)cc1", "Potency": "inconclusive: 6.31 µM [inhibitor, partial curve, poor fit]"}, {"compound": "C=CCn1c(Cc2cccs2)nnc1SCC(=O)c1ccc(F)cc1", "Potency": "active: 39.8 µM"}, {"compound": "Cc1ccc(C)c(S(=O)(=O)n2nc(C)c(S(=O)(=O)N3CCC(C)CC3)c2C)c1", "Potency": "inactive"}, {"compound": "COc1ccccc1-c1nc(-c2ccccc2)nc(N2CCN(C)CC2)c1C#N", "Potency": "inconclusive: 50.1 µM [inhibitor, partial curve]"}, {"compound": "CC1CN(S(=O)(=O)c2ccc(C(=O)Nc3nnc(-c4ccccn4)o3)cc2)CC(C)O1", "note": "(centres undefined)", "Potency": "inactive"}, {"compound": "O=[N+]([O-])c1ccc2[nH]nc(-c3ccccc3)c2c1", "Potency": "inactive"}, {"compound": "CCc1ccc(NCc2cc3cc4c(cc3n(CC(=O)Nc3ccccc3OC)c2=O)OCCO4)cc1", "Potency": "inconclusive: 3.98 µM [inhibitor, full curve]"}, {"compound": "Cc1ccc(NC(=O)CC2Oc3ccc(C)cc3NC2=O)cc1", "note": "(centres undefined)", "Potency": "inconclusive: 56.2 µM [inhibitor, partial curve, poor fit]"}, {"compound": "N#Cc1ccc(CN2CCN(C(=O)Cn3nc(C(N)=O)c4ccccc4c3=O)CC2)cc1", "Potency": "inconclusive: 89.1 µM [inhibitor, single point]"}, {"compound": "Cc1cc(NC(=O)Nc2nnc(N(C)C3CCCCC3)s2)ccc1Br", "Potency": "inactive"}, {"compound": "Cc1cc(C)n2cc(-c3ccc(Cl)cc3)c(C(=O)O)c2n1", "Potency": "inconclusive: 79.4 µM [inhibitor, single point]"}, {"compound": "CN(C)c1cc(N/N=C/c2ccccc2C(F)(F)F)nc(N(C)C)n1", "Potency": "inactive"}, {"compound": "Cc1cc(=O)c2cc(C(=O)Nc3ccc(C)c(C)c3)ccc2[nH]1", "Potency": "inconclusive: 39.8 µM [inhibitor, partial curve, poor fit]"}, {"compound": "O=C(NNS(=O)(=O)c1ccccc1)c1ccncc1", "activity, negative = inhibition": "inconclusive: -92.8% [inhibitor]"}, {"compound": "COc1ccc(-c2cc(CCCC(=O)N3CCN(c4ccc(OC)cc4)CC3)no2)cc1", "Potency": "inconclusive: 70.8 µM [inhibitor, single point]"}, {"compound": "CC(CNC(=O)CN1C(=O)NC2(CCOc3ccccc32)C1=O)c1ccccc1", "note": "(centres undefined)", "Potency": "inconclusive: 6.31 µM [inhibitor, single point]"}, {"compound": "CCOc1ccc(S(=O)(=O)n2ccnc2C)cc1", "Potency": "inconclusive: 89.1 µM [inhibitor, single point]"}, {"compound": "Cc1nn(-c2ccccc2)c2c1cc1c(=O)[nH]c(=O)nc-1n2-c1cccc(Cl)c1", "Potency": "inconclusive: 22.4 µM [inhibitor, single point]"}, {"compound": "CCc1c(C)[nH]n(-c2nc(-c3ccccc3)cs2)c1=O", "Potency": "active: 50.1 µM"}, {"compound": "COc1ccccc1C1(O)CCN(CC(=O)Nc2nc(-c3ccccc3)cs2)CC1", "Potency": "inconclusive: 70.8 µM [inhibitor, partial curve, poor fit]"}, {"compound": "Nc1c(C(=O)N2CCOCC2)oc2ccccc12", "Potency": "inconclusive: 89.1 µM [inhibitor, single point]"}]}]}
